# Results: the supplement of paper PMC9135407
# Where “and” joins values, the source holds several entries; their conditions need not be identical. Equal entries are not always repeated. Structures can show the parent of a compound that is named as a salt. The whole screen tested about 5,800 compounds, of which about 620 (11%) showed activity.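 Rule for the calls: active = score above a cut-off or among the top three wells of a plate; in these data no inactive exceeds 0.85.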 This is a selection; strong and weak results do not stand in their true shares.
# System: primary human hepatic stellate cells (donor 1)
# Assay: scaled lipid accumulation score (0 = DMSO-like, 1 = nortriptyline-like); higher = stronger HSC inactivation (lipid re-accumulation), active = hit call of the paper
# Conditions: 48 h
# Protocol: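 Primary lipid accumulation screen in primary human hepatic stellate cell myofibroblasts (donor 1, passage 8) in 384-well plates. 100 nL of library compound was pin-transferred into 30 µL medium in duplicate, and cells were treated for 48 h. The 'Scaled' score combines distance from plate baseline, toxicity and reproducibility penalties, and is normalised to nortriptyline (positive) and DMSO (negative) controls on each plate. A hit is defined as scaled >0.85 or among the top 3 wells per plate.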
# [1] = library stock concentration: 10 mM
# [2] = library stock concentration: 3.33 mM
# [3] = library stock concentration: 1 mM
# [4] = library stock concentration: 8.6 mM
smiles,measurement,setting,value
COc1cc2c(c(OC)c1OC)-c1ccc(OC)c(=O)cc1[C@@H](NC(C)=O)CC2 [Colchicine],scaled lipid accumulation score,,inactive: 0.537
same,scaled lipid accumulation score,library stock concentration: 5 mM,inactive: 0.127
same,scaled lipid accumulation score,[1],inactive: 0.319 and inactive: 0.49 and inactive: 0.08
N#C[C@H](O[C@@H]1O[C@H](CO[C@@H]2O[C@H](CO)[C@@H](O)[C@H](O)[C@H]2O)[C@@H](O)[C@H](O)[C@H]1O)c1ccccc1 [Amygdalin],scaled lipid accumulation score,[1],inactive: 0.097
CC[C@@H](CO)NC(=O)[C@@H]1C=C2c3cccc4c3c(cn4C)C[C@H]2N(C)C1 [Methysergide maleate],scaled lipid accumulation score,[1],inactive: 0.458 and inactive: 0.048
CC[C@@H](CO)NC(=O)[C@@H]1C=C2c3cccc4c3c(cn4C)C[C@H]2N(C)C1 [Methysergide],scaled lipid accumulation score,library stock concentration: 5.7 mM,inactive: ≤ 0
CC(C)C1CNC(C(=O)O)C1CC(=O)O (stereo unspecified) [Dihydrokainic acid],scaled lipid accumulation score,[1],inactive: 0.08
"CC(=O)N1CC[N+](C)(C)CC1 [4-Acetyl-1,1-dimethylpiperazinium iodide]",scaled lipid accumulation score,[1],inactive: 0.017
CC[C@@]1([C@H]2O[C@H]([C@H]3O[C@@](O)(CO)[C@H](C)C[C@@H]3C)C[C@H]2C)CC[C@H]([C@@]2(C)CC[C@]3(C[C@H](O)[C@@H](C)[C@@H]([C@H](C)[C@H](OC)[C@@H](C)C(=O)O)O3)O2)O1 [Monensin sodium],scaled lipid accumulation score,library stock concentration: 7.2 mM,inactive: 0.508
C[C@H]1O[C@@H](O[C@H]2CC[C@]3(C=O)[C@H]4CC[C@]5(C)[C@@H](C6=CC(=O)OC6)CC[C@]5(O)[C@@H]4CC[C@]3(O)C2)C[C@H](O)[C@@H]1O [Helveticoside],scaled lipid accumulation score,,inactive: 0.504
"CC(N)C(O)c1ccc(O)c(O)c1 (single isomer, unassigned; (-)) [(-)-alpha-Methylnorepinephrine]",scaled lipid accumulation score,[1],inactive: 0.196
CC1C=CC=CCCC=CC=CC=CC=CC(OC2OC(C)C(O)C(N)C2O)CC2OC(O)(CC(O)C(O)CCC(O)CC(O)CC(O)CC(=O)OC(C)C(C)C1O)CC(O)C2C(=O)O (stereo unspecified) [Nystatin],scaled lipid accumulation score,[1],inactive: ≤ 0
Cl.Oc1ccc2c3c1O[C@H]1c4[nH]c5ccccc5c4C[C@@]4(O)C(C2)N(CC2CC2)CCC314 (stereo partly specified) [Naltrindole hydrochloride],scaled lipid accumulation score,[1],active: 1.1
O=c1[nH]c2ccccc2n1C1CCN(CCCC(c2ccc(F)cc2)c2ccc(F)cc2)CC1 [Pimozide],scaled lipid accumulation score,[1],active: 1.15
OCc1cnc[nH]1 [4-Imidazolemethanol hydrochloride],scaled lipid accumulation score,[1],inactive: 0.159
CO[C@H]1[C@H](O)[C@@H](O[C@H]2CC[C@]3(C=O)C4CC[C@]5(C)[C@@H](C6=CC(=O)OC6)CC[C@]5(O)C4CC[C@@H]3C2)O[C@@H](C)[C@@H]1O (stereo partly specified) [Peruvoside],scaled lipid accumulation score,[1],active: 0.873
CN1CCc2cc3c(cc2[C@H]1[C@@H]1OC(=O)c2c1ccc1c2OCO1)OCO3 [Bicuculline (+)],scaled lipid accumulation score,,inactive: 0.03
COC1=CC(=O)O[C@@H](/C=C/c2ccccc2)C1 (racemic) [Kavain (+/-)],scaled lipid accumulation score,library stock concentration: 21.7 mM,inactive: 0.117
COC1=CC(=O)O[C@@H](/C=C/c2ccccc2)C1 [Kawain],scaled lipid accumulation score,,inactive: 0.119
O=C1CN=C(c2cccc(Br)c2)c2oc3ccccc3c2N1,scaled lipid accumulation score,[1],inactive: 0.159
O=C(O)CC[N+](=O)[O-] [3-Nitropropionic acid],scaled lipid accumulation score,[1],inactive: 0.009
CN1C[C@H](CNC(=O)OCc2ccccc2)C[C@@H]2c3cccc4c3c(cn4C)C[C@H]21 [Metergoline],scaled lipid accumulation score,[1],inactive: 0.653
CO/C1=C\C(C)=C\[C@@H](C)[C@@H](O)[C@@H](C)C/C(C)=C/C=C/[C@H](OC)[C@@H]([C@@H](C)[C@@H](O)[C@H](C)[C@@]2(O)C[C@@H](O)[C@H](C)[C@@H](C(C)C)O2)OC1=O [Bafilomycin A1],scaled lipid accumulation score,library stock concentration: 800 uM,active: 1.08
O=[N+]([O-])c1ncc[nH]1 [Azomycin],scaled lipid accumulation score,[2],inactive: ≤ 0
same,scaled lipid accumulation score,[1],inactive: ≤ 0
CC(=O)O[C@H]1CC[C@@]2(C)C(=CC[C@@H]3[C@@H]2CC[C@]2(C)C(=O)CC[C@@H]32)C1 [Prasterone acetate],scaled lipid accumulation score,[1],inactive: 0.103
CC(=O)O[C@H]1CC[C@@]2(C)C(=CC[C@@H]3[C@@H]2CC[C@]2(C)C(=O)CC[C@@H]32)C1 [Dehydroisoandosterone 3-acetate],scaled lipid accumulation score,,inactive: ≤ 0
O=C(NCNC(=O)NC1C(=O)NC(=O)N1CO)NC1C(=O)NC(=O)N1CO (stereo unspecified) [Imidurea],scaled lipid accumulation score,,inactive: 0.015
CCCN1CCC[C@@H]2Cc3n[nH]cc3C[C@H]21 [Quinpirole HCl (-)-],scaled lipid accumulation score,library stock concentration: 9.1 mM,inactive: ≤ -0.006
CCCN1CCC[C@@H]2Cc3n[nH]cc3C[C@H]21 [(-)-Quinpirole hydrochloride],scaled lipid accumulation score,,inactive: ≤ 0
same,scaled lipid accumulation score,[1],inactive: ≤ 0 and inactive: ≤ -0.006
CCCN1CCC[C@@H]2Cc3n[nH]cc3C[C@H]21 [(?)-Quinpirole dihydrochloride],scaled lipid accumulation score,[1],inactive: ≤ 0
CCCCCCCCCCCCCCCCOC[C@@H](O)COP(=O)([O-])OCC[N+](C)(C)C,scaled lipid accumulation score,[3],inactive: ≤ 0 and inactive: ≤ -0.021
CCCCC/C=C\C/C=C\C/C=C\C/C=C\CCCC(N)=O [Arachidonamide],scaled lipid accumulation score,[3],inactive: ≤ -0.021
CCCCC/C=C\C/C=C\C/C=C\C/C=C\CCCC(N)=O [Arachidonoyl amide],scaled lipid accumulation score,[3],inactive: ≤ 0
CCCCCCCCCOc1ccc2[nH]cc(CCN)c2c1 [5-Nonyloxytryptamine],scaled lipid accumulation score,library stock concentration: 9.9 mM,inactive: 0.5
Cc1nccc2c1[nH]c1cc(O)ccc12 [Harmol hydrochloride],scaled lipid accumulation score,[1],inactive: ≤ 0
CC(C)c1cccc(C(C)C)c1O,scaled lipid accumulation score,[1],inactive: ≤ 0
CC(C)c1cccc(C(C)C)c1O [Propofol],scaled lipid accumulation score,,inactive: 0.085
same,scaled lipid accumulation score,[1],inactive: 0.323
"CC12NC(Cc3ccccc31)c1ccccc12 (single isomer, unassigned; (+)) [(+)-MK 801 maleate]",scaled lipid accumulation score,[1],inactive: 0.18
CCN1CCN(C(=O)Cc2ccc(Nc3ncc(F)c(Nc4ccc(C(=O)Nc5ccccc5Cl)cc4)n3)cc2)CC1 [Aurora A Inhibitor I],scaled lipid accumulation score,[1],active: 1.24
CCOC(=O)c1cncn1[C@H](C)c1ccccc1 [Etomidate],scaled lipid accumulation score,,inactive: ≤ 0
same,scaled lipid accumulation score,[2],inactive: ≤ 0
same,scaled lipid accumulation score,[1],inactive: ≤ 0 and inactive: ≤ -0.006
O=C(CCCN1CCC2(CC1)C(=O)NCN2c1ccccc1)c1ccc(F)cc1 [Spiperone],scaled lipid accumulation score,library stock concentration: 5.1 mM,active: 0.939
"CN1CCc2cc3c(cc2C1C1OC(=O)c2c1ccc1c2OCO1)OCO3 (single isomer, unassigned; (+)) [(+)-Bicuculline]",scaled lipid accumulation score,[2],inactive: ≤ 0
same,scaled lipid accumulation score,[1],inactive: ≤ -0.001 and inactive: ≤ 0
CC(O)(CS(=O)(=O)c1ccc(F)cc1)C(=O)Nc1ccc(C#N)c(C(F)(F)F)c1 (stereo unspecified) [Bicalutamide (CDX)],scaled lipid accumulation score,[1],inactive: ≤ 0
CC(O)(CS(=O)(=O)c1ccc(F)cc1)C(=O)Nc1ccc(C#N)c(C(F)(F)F)c1 (stereo unspecified) [Bicalutamide],scaled lipid accumulation score,[2],inactive: 0.039
same,scaled lipid accumulation score,[1],inactive: ≤ 0
CC(O)(CS(=O)(=O)c1ccc(F)cc1)C(=O)Nc1ccc(C#N)c(C(F)(F)F)c1 (stereo unspecified),scaled lipid accumulation score,[1],inactive: ≤ 0
CCCn1c(=O)c2[nH]c(C3CCCC3)nc2n(CCCOC(=O)c2ccc(S(=O)(=O)F)cc2)c1=O,scaled lipid accumulation score,[1],inactive: 0.433
CN[C@@H]1C[C@H]2O[C@@](C)([C@@H]1OC)n1c3ccccc3c3c4c(c5c6ccccc6n2c5c31)C(=O)NC4 [Staurosporine],scaled lipid accumulation score,[3],active: 0.546
CCCCCCC(C)(C)c1ccc([C@@H]2C[C@H](O)CC[C@H]2CCCO)c(O)c1,scaled lipid accumulation score,[3],inactive: 0.004
"CCCCCC1OC1C/C=C\CCCCCCCC(=O)O (stereo unspecified) [Leukotoxin B (12,13-EODE)]",scaled lipid accumulation score,library stock concentration: 100 uM,inactive: ≤ -0.021
CNC1CC(c2ccc(Cl)c(Cl)c2)c2ccccc21 (stereo unspecified) [Indatraline],scaled lipid accumulation score,[1],inactive: 0.64
CCC1(c2ccc(N)cc2)CCC(=O)NC1=O (racemic) [Aminoglutethimide],scaled lipid accumulation score,[2],inactive: ≤ 0
same,scaled lipid accumulation score,[4],inactive: ≤ -0.001
same,scaled lipid accumulation score,[1],inactive: ≤ 0
"CCC1(c2ccc(N)cc2)CCC(=O)NC1=O (racemic) [Glutethimide, para-amino]",scaled lipid accumulation score,,inactive: 0.02
CCC1(c2ccc(N)cc2)CCC(=O)NC1=O (racemic) [(?)-p-Aminoglutethimide],scaled lipid accumulation score,[1],inactive: 0.124
CCC1(c2ccc(N)cc2)CCC(=O)NC1=O (racemic) [Dl-aminoglutethimide],scaled lipid accumulation score,[4],inactive: 0.005
Cc1ncsc1CCCl [Chlormethiazole hydrochloride],scaled lipid accumulation score,[1],inactive: 0.01 and inactive: ≤ 0
O=[N+]([O-])O[C@H]1CO[C@H]2[C@@H]1OC[C@H]2O[N+](=O)[O-] [Isosorbide dinitrate],scaled lipid accumulation score,,inactive: ≤ 0
same,scaled lipid accumulation score,[1],inactive: ≤ 0
CCN1C[C@]2(COC)CC[C@H](O)[C@]34C1[C@@](O)([C@@H](OC)[C@H]23)[C@@]1(O)C[C@H](OC)[C@H]2C[C@@H]4[C@@H]1[C@H]2OC [Delsoline],scaled lipid accumulation score,,inactive: ≤ 0
CCN1C[C@]2(COC)CC[C@H](OC)[C@]34C5C[C@@H]6[C@@H](OC)C[C@@]7(OCO[C@@]7(C13)[C@@H](O)C24)C5[C@H]6OC (stereo partly specified) [Delcorine],scaled lipid accumulation score,,inactive: ≤ 0
CC(C)Oc1cccnc1N(C)C1CCN(Cc2ccccc2)CC1,scaled lipid accumulation score,[1],inactive: ≤ 0
Fc1ccc(C(OCCN2CCN(C/C=C/c3ccccc3)CC2)c2ccc(F)cc2)cc1,scaled lipid accumulation score,[1],inactive: 0.507
COC(=O)N1CCN(C(=O)Cc2ccc(Cl)c(Cl)c2)C(CN2CCCC2)C1.O=C(O)/C=C/C(=O)O (stereo unspecified),scaled lipid accumulation score,[1],active: 0.902
